From PubChem BioAssay AID1508624 (National Center for Advancing Translational Sciences (NCATS), 2021)
The campaign covered roughly 48,000 compounds. About 120 (0.25%) were called active. Another 4% or so got no clear call; they are omitted. The call rests on the fitted dose curve; in most records, active means well fitted activation curve with a large enough effect; inconclusive means small, poorly fitted or top-dose-only effect, or another doubt; inactive means no such curve, though single readings can be large or run the other way. Some of the results follow.

Experiment: Primary qHTS for Identification of Small Molecule Activators of Huntingtin-Antisense Promoter Activity; further: nearly all actives have a fitted effect of over 55% in size
Conditions: HEK293 HTT-AS promoter firefly luciferase reporter, 24 h; series mostly up to 57.5 µM; activity change, positive = activation: at the top concentration
Outline: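 Firefly luciferase readout (Dual-Glo, 10 min RT) after 24 h, 37 °C compound exposure (final up to 57.5 uM) of HEK293 reporter cells cultured 24 h beforehand; PTC124 at 50 uM final as control inhibitor; activity scaled vehicle 0%, zero RLU -100%.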

Activity change, positive = activation, inactive:
COc1ccc(NC(=O)CSc2nc3cc(OC)c(OC)cc3c3nc(-c4ccccc4)nn23)cc1Cl 0.939%, COc1ccc(-c2cc3nccn3c(Nc3ncccc3C(N)=O)n2)cc1OC -5.09%, COc1cc(-c2ccno2)ccc1S(=O)(=O)N1CCN(c2ccccc2F)CC1 -27.4%, COC(=O)c1ccc(NC(=O)C(=O)NCCc2sc(-c3cccc(F)c3)nc2C)cc1 -4.61%, COc1ccc(CC(=O)NCc2nc3cccnc3n2Cc2ccc(C)cc2)cc1 -12.1%, CCCN(CCC)C(=O)CSc1nc2ccccc2c(=O)n1Cc1ccco1 -23.8%, CCc1ccc(NC(=O)Cn2c(=O)n(CCC(=O)NCc3ccc4c(c3)OCO4)c(=O)c3ccccc32)cc1 -16.6%, CCC1CN(C(=O)Nc2cc(C)cc(C)c2)c2ccccc2O1 (stereo unspecified) -27.4%, Cc1cc(NC(=O)c2cc(-c3ccc(Cl)cc3)on2)nn1Cc1ccc(Cl)cc1 -33.3%, Cc1c(C)n(Cc2ccccc2)c2ccc(C(=O)NCc3ccco3)cc12 -15%, Cc1cccc(CN2CCc3nc(N4CCN(c5ccccn5)CC4)ncc3C2)c1 -45.3%, COc1cccc(Cn2c(=O)n(-c3ccccc3C)c(=O)c3c2c2cc(C)ccc2n3C)c1 -42.5%, COc1cccc(NC(=O)C2CCN(C(=O)N3CC(C)Oc4ccccc43)CC2)c1 (stereo unspecified) -25.6%, Cc1ccc(CNC(=O)CN2C(=O)C3CCCCN3c3ccc(C(=O)N4CCCC4)cc32)cc1 (stereo unspecified) -11.6%, COc1ccc(Cl)cc1C(=O)Nc1ccc(-c2nnc3n2CCCCC3)cc1 -12.9%, O=C(NCc1ccccc1Cl)c1ccc2c(O)c(S(=O)(=O)c3ccccc3)c(=O)[nH]c2c1 -13.7%, CC(=O)c1ccc(NC(=O)CCc2c(C)nc3cc(-c4ccc(Cl)cc4)nn3c2C)cc1 -80%, COc1cccc(-n2c(SCc3ccccc3C)nc3c([nH]c4ccccc43)c2=O)c1 -23.5%, Cc1ccc(C)c(NC(=O)CN(CCc2ccccc2)S(=O)(=O)c2ccccc2)c1 -25.5%, Cc1cccc(Cc2c(C)nc3nc(SCc4ccccc4C)nn3c2C)c1 1.49%, CN(C)S(=O)(=O)c1ccc2c(c1)nnn2CCNC(=O)Nc1ccc(Br)cc1 -11.9%, Cn1c(=O)c2c(nc(NCc3ccccc3)n2Cc2ccccc2Cl)n(C)c1=O 3.64% [at 11.5 µM, percent change from vehicle, -100% = no light], CCCCOc1ccc(CNC(=O)c2cnc3sc(N4CCOCC4)nn3c2=O)cc1 1.84%, COc1cccc(OCc2nc3ccccc3n2CCOc2ccccc2C)c1 -11%, Cn1nnc2c(C(N)=O)ncn2c1=O, CCOC(=O)C(C)Oc1cccc2c(=O)n(CC(=O)Nc3ccc4c(c3)OCCO4)ccc12 (stereo unspecified) 7.18%
